From the supplement of paper PMC4604168 (melanoma cell lines)
Some of the results follow. Single values are uncertain, as repeats are few or missing.

How the values were obtained:
Test in all cases: cell count relative to DMSO control; melanoma cells; higher = more viable cells
Conditions in all cases: library dose: low library concentration; 72 h
COLO792 = tested on: COLO792
COLO800 = tested on: COLO800
COLO829 = tested on: COLO829
G361 = tested on: G361
IPC-298 = tested on: IPC-298
IST-MEL1 = tested on: IST-MEL1
LB2518-MEL = tested on: LB2518-MEL
LOXIMVI = tested on: LOXIMVI
MEL-HO = tested on: MEL-HO
MZ2-MEL = tested on: MZ2-MEL
MeWo = tested on: MeWo
RPMI7951 = tested on: RPMI7951
RVH-421 = tested on: RVH-421
SkMel28 = tested on: SkMel28
SkMel2 = tested on: SkMel2
SkMel30 = tested on: SkMel30
SkMel5 = tested on: SkMel5
UACC257 = tested on: UACC257
UACC62 = tested on: UACC62
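Note: cell number obtained by counting DAPI-stained nuclei in high-throughput microscope images with image analysis software, screen run in 1,536-well plates.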

SMILES | cell count (COLO792) [%] | cell count (COLO800) [%] | cell count (COLO829) [%] | cell count (G361) [%] | cell count (IPC-298) [%] | cell count (IST-MEL1) [%] | cell count (LB2518-MEL) [%] | cell count (LOXIMVI) [%] | cell count (MEL-HO) [%] | cell count (MZ2-MEL) [%] | cell count (MeWo) [%] | cell count (RPMI7951) [%] | cell count (RVH-421) [%] | cell count (SkMel28) [%] | cell count (SkMel2) [%] | cell count (SkMel30) [%] | cell count (SkMel5) [%] | cell count (UACC257) [%] | cell count (UACC62) [%]
CN(c1ncccc1CNc1nc(Nc2ccc3c(c2)CC(=O)N3)ncc1C(F)(F)F)S(C)(=O)=O + COc1cc2ncnc(Nc3ccc(Oc4ccccc4)cc3)c2cc1OC [SrcI1] (first compound 0.08 µM, partner dose 2 µM) | 78.2 | 180 | 85.2 | 100 | 87.1 | 95 | 106 | 105 | 79.4 | 86.6 | 91.1 | 78.1 | 102 | 88.5 | 90 | 81.9 | 90.8 | 81.7 | 82.3
NC1(c2ccc(-c3nc4ccn5c(=O)[nH]nc5c4cc3-c3ccccc3)cc2)CCC1 + OCCn1cc(-c2cnc3nnn(Cc4ccc5ncccc5c4)c3n2)cn1 [PF04217903] (first compound 0.4 µM, partner dose 1 µM) | 75 | 73.6 | 97.6 | 108 | 99.1 | 90.8 | 93.6 | 115 | 86.3 | 98.2 | 98.9 | 95.1 | 93.4 | 65.9 | 91.1 | 93.5 | 80.8 | 79.4 | 85.3
CS(=O)(=O)c1ccc(C(=O)Nc2ccc(Cl)c(-c3ccccn3)c2)c(Cl)c1 [vismodegib] + O=C(O)C(=O)Nc1sc2c(c1C(=O)O)CCNC2 [TCS401] (first compound 1 µM, partner dose 1.66667 µM) | 94.1 | 90.2 | 109 | 104 | 102 | 109 | 105 | 76 | 99.3 | 102 | 122 | 122 | 118 | 94.9 | 111 | 100 | 96.2 | 92.8 | 99.3
CS(=O)(=O)c1ccc(C(=O)Nc2ccc(Cl)c(-c3ccccn3)c2)c(Cl)c1 [vismodegib] + CN(C)S(=O)(=O)c1ccc2c(c1)/C(=C/c1cc3c([nH]1)CCCC3)C(=O)N2 [SU6656] (first compound 1 µM, partner dose 0.4 µM) | 85.1 | 79.2 | 100 | 91.8 | 104 | 93.1 | 95.1 | 95.6 | 98.9 | 108 | 87.5 | 108 | 116 | 89.8 | 98.5 | 88.1 | 102 | 76.1 | 77.7
CCCS(=O)(=O)Nc1ccc(F)c(C(=O)c2c[nH]c3ncc(Cl)cc23)c1F + CCCCCCCCCCCC1=C(O)C(=O)C=C(O)C1=O [Embelin] (first compound 0.08 µM, partner dose 1.2 µM) | 116 | 108 | 116 | 93 | 90.8 | 98 | 86.4 | 112 | 97.3 | 90.7 | 112 | 104 | 88.7 | 97.9 | 103 | 97.4 | 118 | 95 | 78.2
CS(=O)(=O)c1ccc(C(=O)Nc2ccc(Cl)c(-c3ccccn3)c2)c(Cl)c1 [vismodegib] + O=C1NC(=O)/C(=C/c2ccc(-c3ccc(F)cc3O)o2)S1 [AS252424] (first compound 1 µM, partner dose 1 µM) | 113 | 98.8 | 106 | 99 | 96.9 | 100 | 76 | 95.9 | 94.5 | 102 | 88.2 | 90.8 | 91.1 | 101 | 100 | 94.8 | 96.3 | 95.1 | 95.2
CN(c1ncccc1CNc1nc(Nc2ccc3c(c2)CC(=O)N3)ncc1C(F)(F)F)S(C)(=O)=O + CCN(CC)CCCCNc1ncc2cc(-c3cc(OC)cc(OC)c3)c(NC(=O)NC(C)(C)C)nc2n1 [PD173074] (first compound 0.08 µM, partner dose 0.1 µM) | 74.4 | 64.6 | 86.4 | 83.9 | 98 | 98.4 | 94.4 | 76.4 | 94.6 | 89.7 | 103 | 66.8 | 94.8 | 90.5 | 86 | 96.7 | 72.4 | 69.2 | 74.9
C=C(c1ccc(C(=O)O)cc1)c1cc2c(cc1C)C(C)(C)CCC2(C)C [Bexarotene] + O=C(Nc1cccc(Cl)c1)Nc1ncc(CCNc2ncnc3ccsc23)s1 [SNS314] (first compound 2 µM, partner dose 0.0008 µM) | 97 | 113 | 94.5 | 103 | 94.4 | 83.9 | 84.6 | 128 | 99.1 | 105 | 88.3 | 78 | 107 | 67 | 95.8 | 110 | 86.3 | 93.1 | 83.8
CCCS(=O)(=O)Nc1ccc(F)c(C(=O)c2c[nH]c3ncc(Cl)cc23)c1F + COC(=O)c1sccc1S(=O)(=O)Nc1ccc(Nc2ccccc2)cc1OC [GSK0660] (first compound 0.08 µM, partner dose 1 µM) | 103 | 74.3 | 107 | 82.1 | 88 | 96.3 | 88.4 | 149 | 88.8 | 86.2 | 92.9 | 107 | 104 | 70.4 | 90.2 | 89.6 | 107 | 90.1 | 54.2
CS(=O)(=O)c1ccc(C(=O)Nc2ccc(Cl)c(-c3ccccn3)c2)c(Cl)c1 [vismodegib] + O=C(O)c1ccc(-c2c[nH]c3ncc(-c4ccccc4)cc23)cc1C1CCCC1 [GSK650394] (first compound 1 µM, partner dose 0.16 µM) | 94 | 90.8 | 120 | 105 | 99.3 | 105 | 119 | 196 | 99.8 | 103 | 86.3 | 105 | 96.6 | 102 | 97 | 96.8 | 97.5 | 104 | 109
CN(c1ncccc1CNc1nc(Nc2ccc3c(c2)CC(=O)N3)ncc1C(F)(F)F)S(C)(=O)=O + CCCCCCCCCCCC1=C(O)C(=O)C=C(O)C1=O [Embelin] (first compound 0.08 µM, partner dose 1.2 µM) | 75.5 | 60.8 | 69.1 | 95.9 | 92.5 | 94 | 108 | 93.6 | 91.3 | 93.4 | 99.3 | 73.9 | 93.9 | 88 | 92.9 | 119 | 91.6 | 77.2 | 88.9
CCCS(=O)(=O)Nc1ccc(F)c(C(=O)c2c[nH]c3ncc(Cl)cc23)c1F + O=C(O)C(=O)Nc1sc2c(c1C(=O)O)CCNC2 [TCS401] (first compound 0.08 µM, partner dose 1.66667 µM) | 110 | 116 | 120 | 91.4 | 93.6 | 101 | 106 | 103 | 85.2 | 81.6 | 108 | 93.8 | 73.1 | 77.8 | 104 | 82.5 | 100 | 86.5 | 68.3
CN(c1ncccc1CNc1nc(Nc2ccc3c(c2)CC(=O)N3)ncc1C(F)(F)F)S(C)(=O)=O + CN(NC(=O)CC(=O)NN(C)C(=S)c1ccccc1)C(=S)c1ccccc1 [STA4783] (first compound 0.08 µM, partner dose 0.006 µM) | 63.3 | 54.3 | 57.1 | 100 | 103 | 87.2 | 93.4 | 73 | 92.5 | 97.8 | 102 | 89.9 | 96.3 | 89.4 | 90.2 | 102 | 64.1 | 57.1 | 86.7
CS(=O)(=O)c1ccc(C(=O)Nc2ccc(Cl)c(-c3ccccn3)c2)c(Cl)c1 [vismodegib] + COc1ccc2c(c1)CCC1C2CCC2(C)C(NCCCCCCN3C(=O)C=CC3=O)CCC12 [U73122] (first compound 1 µM, partner dose 0.4 µM) | 104 | 102 | 95.7 | 98.8 | 98.2 | 90.5 | 103 | 109 | 99.5 | 99.2 | 108 | 76.9 | 126 | 128 | 107 | 153 | 95.5 | 101 | 109
C=C(c1ccc(C(=O)O)cc1)c1cc2c(cc1C)C(C)(C)CCC2(C)C [Bexarotene] + COC(=O)c1sccc1S(=O)(=O)Nc1ccc(Nc2ccccc2)cc1OC [GSK0660] (first compound 2 µM, partner dose 1 µM) | 102 | 118 | 94.2 | 91.2 | 95.3 | 92.8 | 101 | 129 | 91.3 | 87.7 | 101 | 76.8 | 110 | 78.7 | 88 | 85.5 | 86.7 | 91.1 | 83
C=C(c1ccc(C(=O)O)cc1)c1cc2c(cc1C)C(C)(C)CCC2(C)C [Bexarotene] + COc1cc2c(Oc3ccc4[nH]c(C)cc4c3F)ncnc2cc1OCCCN1CCCC1 [cediranib] (first compound 2 µM, partner dose 0.4 µM) | 97.1 | 149 | 94.8 | 80.3 | 109 | 92.8 | 93.3 | 167 | 90.8 | 104 | 99 | 85.6 | 115 | 77.4 | 95.6 | 152 | 83.1 | 94.5 | 104
C=C(c1ccc(C(=O)O)cc1)c1cc2c(cc1C)C(C)(C)CCC2(C)C [Bexarotene] + O=C1NC(=O)/C(=C/c2ccc(-c3ccc(F)cc3O)o2)S1 [AS252424] (first compound 2 µM, partner dose 1 µM) | 77.8 | 90.7 | 105 | 91.5 | 93.9 | 89.5 | 102 | 99.9 | 102 | 90.1 | 94.1 | 81.5 | 91.4 | 76.6 | 82.6 | 108 | 91.6 | 93.9 | 98.8
